Experimental findings from PMC12820563 are described below.

The list shows a part of the results. The list includes weakly bound sequences.

For the assay, the target named is T1, MBP-FoxP3dN (UniProt Q99JB6).
T1 sequence: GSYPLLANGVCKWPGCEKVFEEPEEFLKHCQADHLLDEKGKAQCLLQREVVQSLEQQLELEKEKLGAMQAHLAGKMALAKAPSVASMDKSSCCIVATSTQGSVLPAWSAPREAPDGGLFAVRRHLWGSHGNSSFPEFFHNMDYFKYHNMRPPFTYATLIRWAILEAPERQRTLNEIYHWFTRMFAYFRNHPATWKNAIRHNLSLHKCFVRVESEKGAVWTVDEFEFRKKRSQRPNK
The assay is described as follows: PD-seq (MBP pull-down with sequencing). As to conditions: 20 mM Tris-HCl pH 7.5, 100 mM NaCl, 1.5 mM MgCl2, 0.4 uM protein, 0.1 uM dsDNA library, 30 min, room temperature, amylose pull-down; high values mean tight binding; double strand, one strand shown.
Turning to “GATGATTGTTCTCCCAGCTGATGAATTACCTAGCTCGAGTAAACAAATTTTCCTAATCTTTCTGTTCAAGCGCCATCTAC”, the binding signal (RPM ratio (pull-down/input)) is 0.311.
The value for “GATGATTGTTCTCCCAGCTGATGAATTCGGTACCTCGAGTAAACAAATTTTCCTAATCTTTCTGTTCAAGCGCCATCTAC” was 0.686; that for “GATGATTGTTCTCCCAGCTGATGAATTCTCTTCTTCGAGTAAACAAATTTTCCTAATCTTTCTGTTCAAGCGCCATCTAC” was 0.255.
For “GATGATTGTTCTCCCAGCTGATGAATTGCCGGTGTCGAGTAAACAAATTTTCCTAATCTTTCTGTTCAAGCGCCATCTAC”, the binding signal (RPM ratio (pull-down/input)) was 0.627.
With “GATGATTGTTCTCCCAGCTGATGAATTCCAAAACTCGAGTAAACAAATTTTCCTAATCTTTCTGTTCAAGCGCCATCTAC”, the binding signal (RPM ratio (pull-down/input)) is 0.233.
In the case of “GATGATTGTTCTCCCAGCTGATGAATTTATTGGGTCGAGTAAACAAATTTTCCTAATCTTTCTGTTCAAGCGCCATCTAC”, the binding signal (RPM ratio (pull-down/input)) worked out at 5.2.
The value for “GATGATTGTTCTCCCAGCTGATGAATTACCCTTATCGAGTAAACAAATTTTCCTAATCTTTCTGTTCAAGCGCCATCTAC” was 0.445; that for “GATGATTGTTCTCCCAGCTGATGAATTGGGGCTGTCGAGTAAACAAATTTTCCTAATCTTTCTGTTCAAGCGCCATCTAC” was 0.377.
The value for “GATGATTGTTCTCCCAGCTGATGAATTGAGATGTTCGAGTAAACAAATTTTCCTAATCTTTCTGTTCAAGCGCCATCTAC” was 0.976.
The value for “GATGATTGTTCTCCCAGCTGATGAATTCCACGCGTCGAGTAAACAAATTTTCCTAATCTTTCTGTTCAAGCGCCATCTAC” was 0.72; that for “GATGATTGTTCTCCCAGCTGATGAATTCGGATCCTCGAGTAAACAAATTTTCCTAATCTTTCTGTTCAAGCGCCATCTAC” was 0.382.
For the sequence “GATGATTGTTCTCCCAGCTGATGAATTTGTTTGCTCGAGTAAACAAATTTTCCTAATCTTTCTGTTCAAGCGCCATCTAC”, the binding signal (RPM ratio (pull-down/input)) stood at 7.54.
The value for “GATGATTGTTCTCCCAGCTGATGAATTTAGCGCCTCGAGTAAACAAATTTTCCTAATCTTTCTGTTCAAGCGCCATCTAC” was 1.56; that for “GATGATTGTTCTCCCAGCTGATGAATTGGTTTCGTCGAGTAAACAAATTTTCCTAATCTTTCTGTTCAAGCGCCATCTAC” was 1.28.
The value for “GATGATTGTTCTCCCAGCTGATGAATTGAAGGTATCGAGTAAACAAATTTTCCTAATCTTTCTGTTCAAGCGCCATCTAC” was 0.482.
The value for “GATGATTGTTCTCCCAGCTGATGAATTTAGGCTATCGAGTAAACAAATTTTCCTAATCTTTCTGTTCAAGCGCCATCTAC” was 0.879; that for “GATGATTGTTCTCCCAGCTGATGAATTGTACTCGTCGAGTAAACAAATTTTCCTAATCTTTCTGTTCAAGCGCCATCTAC” was 0.475.
With “GATGATTGTTCTCCCAGCTGATGAATTTGATATATCGAGTAAACAAATTTTCCTAATCTTTCTGTTCAAGCGCCATCTAC”, the binding signal (RPM ratio (pull-down/input)) is 1.49.
Take “GATGATTGTTCTCCCAGCTGATGAATTGACGATGTCGAGTAAACAAATTTTCCTAATCTTTCTGTTCAAGCGCCATCTAC”: the binding signal (RPM ratio (pull-down/input)) stood at 0.459.
With “GATGATTGTTCTCCCAGCTGATGAATTTCTGGATTCGAGTAAACAAATTTTCCTAATCTTTCTGTTCAAGCGCCATCTAC”, the binding signal (RPM ratio (pull-down/input)) amounted to 0.223.
With “GATGATTGTTCTCCCAGCTGATGAATTCTCCCCCTCGAGTAAACAAATTTTCCTAATCTTTCTGTTCAAGCGCCATCTAC”, the binding signal (RPM ratio (pull-down/input)) was determined as 0.194.
The value for “GATGATTGTTCTCCCAGCTGATGAATTAAGGGCTTCGAGTAAACAAATTTTCCTAATCTTTCTGTTCAAGCGCCATCTAC” was 0.345; that for “GATGATTGTTCTCCCAGCTGATGAATTAATCGCGTCGAGTAAACAAATTTTCCTAATCTTTCTGTTCAAGCGCCATCTAC” was 0.578.
“GATGATTGTTCTCCCAGCTGATGAATTAACAACGTCGAGTAAACAAATTTTCCTAATCTTTCTGTTCAAGCGCCATCTAC”: the binding signal (RPM ratio (pull-down/input)) is 0.545.
In the case of “GATGATTGTTCTCCCAGCTGATGAATTCACGTCGTCGAGTAAACAAATTTTCCTAATCTTTCTGTTCAAGCGCCATCTAC”, the binding signal (RPM ratio (pull-down/input)) stood at 0.486.
Regarding “GATGATTGTTCTCCCAGCTGATGAATTAGTACCATCGAGTAAACAAATTTTCCTAATCTTTCTGTTCAAGCGCCATCTAC”, the binding signal (RPM ratio (pull-down/input)) stood at 0.878.
Consider “GATGATTGTTCTCCCAGCTGATGAATTGGGCCGATCGAGTAAACAAATTTTCCTAATCTTTCTGTTCAAGCGCCATCTAC”, for which the binding signal (RPM ratio (pull-down/input)) came to 0.464.
The value for “GATGATTGTTCTCCCAGCTGATGAATTGATCGAGTCGAGTAAACAAATTTTCCTAATCTTTCTGTTCAAGCGCCATCTAC” was 0.295.
The value for “GATGATTGTTCTCCCAGCTGATGAATTAGGAATTTCGAGTAAACAAATTTTCCTAATCTTTCTGTTCAAGCGCCATCTAC” was 1.18.
The value for “GATGATTGTTCTCCCAGCTGATGAATTGGTGGAATCGAGTAAACAAATTTTCCTAATCTTTCTGTTCAAGCGCCATCTAC” was 0.276.
On to “GATGATTGTTCTCCCAGCTGATGAATTTCTAAATTCGAGTAAACAAATTTTCCTAATCTTTCTGTTCAAGCGCCATCTAC”, for which the binding signal (RPM ratio (pull-down/input)) was found to be 0.265.
As to “GATGATTGTTCTCCCAGCTGATGAATTCTCGGACTCGAGTAAACAAATTTTCCTAATCTTTCTGTTCAAGCGCCATCTAC”, the binding signal (RPM ratio (pull-down/input)) came out at 0.183.
The value for “GATGATTGTTCTCCCAGCTGATGAATTATTAATCTCGAGTAAACAAATTTTCCTAATCTTTCTGTTCAAGCGCCATCTAC” was 0.4.
The value for “GATGATTGTTCTCCCAGCTGATGAATTGAGGGAGTCGAGTAAACAAATTTTCCTAATCTTTCTGTTCAAGCGCCATCTAC” was 0.308; that for “GATGATTGTTCTCCCAGCTGATGAATTCCGGTTCTCGAGTAAACAAATTTTCCTAATCTTTCTGTTCAAGCGCCATCTAC” was 0.726; that for “GATGATTGTTCTCCCAGCTGATGAATTGGCCTACTCGAGTAAACAAATTTTCCTAATCTTTCTGTTCAAGCGCCATCTAC” was 0.418.
For the sequence “GATGATTGTTCTCCCAGCTGATGAATTTCCGCCGTCGAGTAAACAAATTTTCCTAATCTTTCTGTTCAAGCGCCATCTAC”, the binding signal (RPM ratio (pull-down/input)) was determined as 0.555.
The value for “GATGATTGTTCTCCCAGCTGATGAATTCTGCTTATCGAGTAAACAAATTTTCCTAATCTTTCTGTTCAAGCGCCATCTAC” was 5.11; that for “GATGATTGTTCTCCCAGCTGATGAATTTCAAGTGTCGAGTAAACAAATTTTCCTAATCTTTCTGTTCAAGCGCCATCTAC” was 0.415; that for “GATGATTGTTCTCCCAGCTGATGAATTATGCATATCGAGTAAACAAATTTTCCTAATCTTTCTGTTCAAGCGCCATCTAC” was 4.03.
In the case of “GATGATTGTTCTCCCAGCTGATGAATTGCGTTTTTCGAGTAAACAAATTTTCCTAATCTTTCTGTTCAAGCGCCATCTAC”, the binding signal (RPM ratio (pull-down/input)) is 2.11.
The value for “GATGATTGTTCTCCCAGCTGATGAATTGATGTAGTCGAGTAAACAAATTTTCCTAATCTTTCTGTTCAAGCGCCATCTAC” was 0.84.
Turning to “GATGATTGTTCTCCCAGCTGATGAATTAGTATCGTCGAGTAAACAAATTTTCCTAATCTTTCTGTTCAAGCGCCATCTAC”, the binding signal (RPM ratio (pull-down/input)) was determined as 1.96.
On to “GATGATTGTTCTCCCAGCTGATGAATTACGGATATCGAGTAAACAAATTTTCCTAATCTTTCTGTTCAAGCGCCATCTAC”, for which the binding signal (RPM ratio (pull-down/input)) is 0.455.
The value for “GATGATTGTTCTCCCAGCTGATGAATTTGTCCGATCGAGTAAACAAATTTTCCTAATCTTTCTGTTCAAGCGCCATCTAC” was 0.439.
The value for “GATGATTGTTCTCCCAGCTGATGAATTACACGGGTCGAGTAAACAAATTTTCCTAATCTTTCTGTTCAAGCGCCATCTAC” was 0.325.
Consider “GATGATTGTTCTCCCAGCTGATGAATTGCCTCGTTCGAGTAAACAAATTTTCCTAATCTTTCTGTTCAAGCGCCATCTAC”, for which the binding signal (RPM ratio (pull-down/input)) was found to be 0.803.
With “GATGATTGTTCTCCCAGCTGATGAATTCACCCCTTCGAGTAAACAAATTTTCCTAATCTTTCTGTTCAAGCGCCATCTAC”, the binding signal (RPM ratio (pull-down/input)) was 0.282.
On to “GATGATTGTTCTCCCAGCTGATGAATTATGTATATCGAGTAAACAAATTTTCCTAATCTTTCTGTTCAAGCGCCATCTAC”, for which the binding signal (RPM ratio (pull-down/input)) turned out to be 5.96.
The value for “GATGATTGTTCTCCCAGCTGATGAATTGCAGGTGTCGAGTAAACAAATTTTCCTAATCTTTCTGTTCAAGCGCCATCTAC” was 1; that for “GATGATTGTTCTCCCAGCTGATGAATTGTAGGAGTCGAGTAAACAAATTTTCCTAATCTTTCTGTTCAAGCGCCATCTAC” was 0.309; that for “GATGATTGTTCTCCCAGCTGATGAATTATCACCGTCGAGTAAACAAATTTTCCTAATCTTTCTGTTCAAGCGCCATCTAC” was 0.309.
The value for “GATGATTGTTCTCCCAGCTGATGAATTATGCGGTTCGAGTAAACAAATTTTCCTAATCTTTCTGTTCAAGCGCCATCTAC” was 1.36; that for “GATGATTGTTCTCCCAGCTGATGAATTCGCGCCGTCGAGTAAACAAATTTTCCTAATCTTTCTGTTCAAGCGCCATCTAC” was 0.645.
The value for “GATGATTGTTCTCCCAGCTGATGAATTCCCTTTGTCGAGTAAACAAATTTTCCTAATCTTTCTGTTCAAGCGCCATCTAC” was 0.433.
With “GATGATTGTTCTCCCAGCTGATGAATTGAACCTATCGAGTAAACAAATTTTCCTAATCTTTCTGTTCAAGCGCCATCTAC”, the binding signal (RPM ratio (pull-down/input)) stood at 0.375.
Regarding “GATGATTGTTCTCCCAGCTGATGAATTTAACGTCTCGAGTAAACAAATTTTCCTAATCTTTCTGTTCAAGCGCCATCTAC”, the binding signal (RPM ratio (pull-down/input)) stood at 0.813.
Consider “GATGATTGTTCTCCCAGCTGATGAATTAACACTCTCGAGTAAACAAATTTTCCTAATCTTTCTGTTCAAGCGCCATCTAC”, for which the binding signal (RPM ratio (pull-down/input)) amounted to 0.48.
Take “GATGATTGTTCTCCCAGCTGATGAATTGAACTCCTCGAGTAAACAAATTTTCCTAATCTTTCTGTTCAAGCGCCATCTAC”: the binding signal (RPM ratio (pull-down/input)) came out at 0.282.
For the sequence “GATGATTGTTCTCCCAGCTGATGAATTATTATTATCGAGTAAACAAATTTTCCTAATCTTTCTGTTCAAGCGCCATCTAC”, the binding signal (RPM ratio (pull-down/input)) worked out at 1.99.
The value for “GATGATTGTTCTCCCAGCTGATGAATTTTTTTGATCGAGTAAACAAATTTTCCTAATCTTTCTGTTCAAGCGCCATCTAC” was 0.23; that for “GATGATTGTTCTCCCAGCTGATGAATTGACGAGTTCGAGTAAACAAATTTTCCTAATCTTTCTGTTCAAGCGCCATCTAC” was 0.402; that for “GATGATTGTTCTCCCAGCTGATGAATTTCAAGGTTCGAGTAAACAAATTTTCCTAATCTTTCTGTTCAAGCGCCATCTAC” was 0.253.
